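Protocol summary: plate cells (96-well), add compound at 5 concentrations, incubate 48 h, interpolate endpoints linearly. GI50 is the concentration that inhibits growth by half.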 Active and inactive are the calls of the source. No stated cut-off is given here; in the data, active = GI50 up to about 1.1 µM and inactive = higher.

The experiment deals with NCI-H322M. Nature of the experiment: NCI tumour cell line growth inhibition, 48 h.
In the case of `Fc1ccccc1C1CC(c2ccc3ccccc3c2)=Nc2ccccc2S1` (stereo unspecified), the GI50 was inactive: > 100 µM. The result for `COc1ccc(N(CC(=O)O)N=O)cc1` reads inactive: > 100 µM. `CC(=O)Oc1cc(OC(C)=O)c2c(C)cc(=O)oc2c1`: the GI50 is inactive: > 100 µM.

For the compound `O=P(O)(CCP(=O)(O)c1ccccc1)c1ccccc1`, the GI50 was inactive: > 100 µM. `Cc1cc(C)n(-c2ccnc3cc(Cl)ccc23)n1`: the GI50 was inactive: > 100 µM. The result for `N#CCC12CC=CCC1=C(O)C(=O)c1ccc(O)cc12` (stereo unspecified) reads inactive: > 100 µM; that for `NC(CC1=CCC=CC1)C(=O)O` (stereo unspecified), inactive: 60.3 µM. For `COc1ccc(CNC(C)C(=O)O)cc1` (stereo unspecified), the GI50 was inactive: > 100 µM. The result for `CCOC(=O)C(C(CC(=O)OC)NC(=O)OCc1ccccc1)C1(C)OCCO1` (stereo unspecified) reads inactive: > 100 µM; that for `O=c1cc2n(c(=O)[nH]1)C1OC(C(O)C1O)[C@H]2CCO` (stereo partly specified), inactive: > 100 µM. As to `C=C1C(=O)OC2/C=C(\COC(C)=O)CCC(OC(C)=O)C3=CC(OC3=O)C12` (stereo unspecified), the GI50 was inactive: 13.2 µM. With `Nc1nc(Nc2cc(F)c(Cl)c(F)c2)cc(=O)[nH]1` the figure was inactive: 57.3 µM. With `CC(C)C[C@H]1[C@@H](OCc2ccccc2)COS(=O)(=O)N1[C@H](C)c1ccccc1` the figure was inactive: > 100 µM. The result for `CCOC(=O)c1nc2c(Cl)c3ncccc3cc2[nH]c1=O` reads inactive: 27.2 µM; that for `O=Cc1ccccc1CCn1c(=O)c2cc3c(=O)n(CCc4ccccc4C=O)c(=O)c3cc2c1=O`, inactive: > 100 µM.

`CCCCCCC(CCl)c1sc(-c2csc(CCNC(=O)OC(C)(C)C)n2)nc1C(=O)OC` (stereo unspecified): the GI50 was inactive: 30.8 µM. The result for `O=[N+]([O-])C(/C(Cl)=C(/Cl)N1CCOCC1)=C1\Nc2ccccc2O1` reads inactive: > 100 µM; that for `C=CCOC(=O)N1[C@H]2C#C/C=C\C#C[C@]3(O)C(=O)C[C@H](C)[C@]24O[C@]43C2=CC(=O)C=CC21OC` (stereo partly specified), inactive: 23.1 µM; that for `CCCN(CCCCN1C(=O)c2ccccc2C1=O)CC1COc2ccccc2O1` (stereo unspecified), inactive: > 100 µM. With `COCOCC1CCCN1CN1CCC[C@H]1COCOC` (stereo partly specified) the figure was inactive: > 100 µM. The result for `Cc1cc(C)nc(NS(=O)(=O)c2ccc(Nc3nnc(/C=C/c4c(O)ccc5ccccc45)c(=O)n3N)cc2)n1` reads inactive: 71.3 µM; that for `COc1ccc(-c2csc(Cc3nc4c(Br)cc(Br)cc4c(=O)n3-c3ccc(OC)cc3)n2)cc1`, inactive: 46 µM.

Take `C[C@@H](Cl)[C@H]1CCCN(Cc2ccc(Br)cc2)C1`: the GI50 was inactive: > 12.5 µM.

Consider `CN/N=C(\C)C(CN1CCCCC1)C(C1=C(O)c2ccccc2OC1)c1ccccc1` (stereo unspecified), for which the GI50 is inactive: > 100 µM. With `O=C1C(Cl)=C(N[C@@H](Cc2ccccc2)C(=O)OCc2ccccc2)C(=O)c2c(O)ccc(O)c21` the figure was inactive: 6.35 µM; with `CCCCC[C@@H]1OC(=O)[C@@]2(CC3c4ccccc4C2c2ccccc23)[C@H]1C(=O)OC`, inactive: > 100 µM. With `CC(C)(C)C1CCC(CI)(N=[N+]=[N-])CC1` (stereo unspecified) the figure was inactive: > 100 µM. The result for `CSc1n[nH]c2[nH]nc(C)c12` reads inactive: > 100 µM; that for `CN(C)CC1(Cc2ccccc2)CCC(Cc2ccccc2)C1=O` (stereo unspecified), inactive: 17.5 µM; that for `O=c1c(SSc2coc3cc(F)ccc3c2=O)coc2cc(F)ccc12`, inactive: 28.5 µM. Regarding `CC(C)c1cc(C(C)C)c(S(=O)(=O)NN)c(C(C)C)c1`, the GI50 is inactive: > 100 µM. With `O=C(NC(=O)c1c(Cl)nc2sccn12)Nc1ccc(Cl)cc1` the figure was inactive: > 100 µM; with `Cc1cc2cc3c(cc2c(-c2ccc([N+](=O)[O-])cc2)n1)OCO3`, inactive: 37.5 µM. The result for `CC1(C)CC(=O)C2=C(C1)OC1(CC2c2ccc(Cl)cc2)CC(c2ccc(Cl)cc2)C2=C(CC(C)(C)CC2=O)O1` (stereo unspecified) reads inactive: 15.5 µM; that for `COc1cc2c(cc1O)N=C[C@@H]1CC[C@@H](O)N1C2=O.COc1cc2c(cc1O)N=C[C@@H]1CC[C@H](O)N1C2=O`, inactive: 4.73 µM; that for `COc1ccc(C(C#N)NNC(=O)Cc2ccccc2)cc1OC` (stereo unspecified), inactive: > 100 µM.

Take `CCOC(=O)C(O)Cc1cnc2ccccc2n1` (stereo unspecified): the GI50 was inactive: > 100 µM. With `CN(C)P(=O)(/C(N)=N/Nc1ccc([N+](=O)[O-])cc1)N(C)C` the figure was inactive: > 100 µM; with `Nc1nc(-c2ccc(Cl)c([N+](=O)[O-])c2)cs1`, inactive: > 100 µM; with `OCC1CCCCCCCCCCC12SCCCS2` (stereo unspecified), inactive: > 100 µM. With `O=C1C2c3[nH]c4ccccc4c3C3CCCCCCC3C2C(=O)N1c1ccccc1` (stereo unspecified) the figure was inactive: 31.1 µM; with `Cc1ccc(-c2n[nH]c(=O)n2NC(=O)c2ccccc2C(=O)O)cc1`, inactive: > 100 µM; with `O=C1N[C@@H](COc2ccc(/C=N/c3ccc(CCc4ccc(/N=C/c5ccc(OC[C@@H]6COC(=O)N6)cc5)cc4)cc3)cc2)CO1`, inactive: > 100 µM. The result for `O=C1CC(C(O)CO)CC(=O)N1` (stereo unspecified) reads inactive: > 100 µM. Consider `COc1nc(NC2OCC(OC(C)=O)C(OC(C)=O)C2OC(C)=O)c(-c2csc(N)n2)c(=O)n1C` (stereo unspecified), for which the GI50 was inactive: > 100 µM. The result for `COc1ccc(C(=O)/C=C/c2ccc(OCC#N)cc2)cc1` reads inactive: 38.6 µM; that for `c1ccc(C2C3=C(CCCC3)Nc3nnnn32)cc1` (stereo unspecified), inactive: > 100 µM; that for `Nc1ccc(C(=O)NN2C(=O)C(Cl)C2c2ccccc2O)cc1` (stereo unspecified), inactive: 48.6 µM. The result for `O=C1C(Cl)C(c2ccccc2)N1n1cnc2ccccc2c1=O` (stereo unspecified) reads inactive: > 100 µM. For `CO[P@]1(=O)O[C@@H](c2ccccc2)[C@H](O)[C@]1(O)c1ccccc1`, the GI50 was inactive: > 100 µM.

As for `O=C1C(Cl)=C(N2CCOCC2)C(=O)c2c(O)ccc(O)c21`, the GI50 was inactive: 1.75 µM. The result for `CC(C)(C)N1C=[N+](C(C)(C)C)CC1` reads inactive: > 100 µM; that for `CN1CCN(C(=S)N(C(=O)c2cccs2)C2CCCCC2)CC1`, inactive: > 100 µM; that for `CCC12C=C(C(=O)OC)N3c4ccccc4C4CCN(CCC1)C2C43` (stereo unspecified), inactive: 77.1 µM. With `CSc1ncnc2c1cnn2Cc1cn(COCCO)nn1` the figure was inactive: 31.9 µM; with `CC(=O)OC(Cc1ccc2ccccc2n1)(C(F)(F)F)C(F)(F)F`, inactive: 2.06 µM. As for `O=C(O)Cn1cc([N+](=O)[O-])c(=O)c2ccccc21`, the GI50 is inactive: > 100 µM. The result for `O=S(=O)(O)c1ccc(O)c(/N=N/c2c(O)ccc3ccccc23)c1` reads inactive: > 100 µM; that for `C[C@@]1(Cc2ccccc2)C(=O)N2[C@@H](CO)C(c3ccccc3)O[C@]2(C)c2ccccc21` (stereo partly specified), inactive: > 100 µM.

Take `CC(=O)C1C(=O)C(=O)N(c2ccccc2)C1=O` (stereo unspecified): the GI50 is inactive: > 100 µM. In the case of `NC(=O)NC(=O)c1cccc(NC(=O)CBr)c1`, the GI50 is active: 0.156 µM.
